# Test results: article PMC4336329 (PLoS ONE, 2015)
# The whole screen tested about 310,000 compounds, of which about 14,000 (4.5%) showed an effect of 50% or more. The effect is printed as a negative number. The list shows a part of the results.
# Molecular target: human ether-à-go-go-related gene (hERG) potassium channel (human, UniProt Q12809)
# Assay: primary screen, population patch clamp on CHO cells stably expressing hERG
# 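Note: peak tail current of the secondary pulse compared with the same well before compound.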
# Chain of human ether-à-go-go-related gene (hERG) potassium channel (Q12809 whole entry, looked up): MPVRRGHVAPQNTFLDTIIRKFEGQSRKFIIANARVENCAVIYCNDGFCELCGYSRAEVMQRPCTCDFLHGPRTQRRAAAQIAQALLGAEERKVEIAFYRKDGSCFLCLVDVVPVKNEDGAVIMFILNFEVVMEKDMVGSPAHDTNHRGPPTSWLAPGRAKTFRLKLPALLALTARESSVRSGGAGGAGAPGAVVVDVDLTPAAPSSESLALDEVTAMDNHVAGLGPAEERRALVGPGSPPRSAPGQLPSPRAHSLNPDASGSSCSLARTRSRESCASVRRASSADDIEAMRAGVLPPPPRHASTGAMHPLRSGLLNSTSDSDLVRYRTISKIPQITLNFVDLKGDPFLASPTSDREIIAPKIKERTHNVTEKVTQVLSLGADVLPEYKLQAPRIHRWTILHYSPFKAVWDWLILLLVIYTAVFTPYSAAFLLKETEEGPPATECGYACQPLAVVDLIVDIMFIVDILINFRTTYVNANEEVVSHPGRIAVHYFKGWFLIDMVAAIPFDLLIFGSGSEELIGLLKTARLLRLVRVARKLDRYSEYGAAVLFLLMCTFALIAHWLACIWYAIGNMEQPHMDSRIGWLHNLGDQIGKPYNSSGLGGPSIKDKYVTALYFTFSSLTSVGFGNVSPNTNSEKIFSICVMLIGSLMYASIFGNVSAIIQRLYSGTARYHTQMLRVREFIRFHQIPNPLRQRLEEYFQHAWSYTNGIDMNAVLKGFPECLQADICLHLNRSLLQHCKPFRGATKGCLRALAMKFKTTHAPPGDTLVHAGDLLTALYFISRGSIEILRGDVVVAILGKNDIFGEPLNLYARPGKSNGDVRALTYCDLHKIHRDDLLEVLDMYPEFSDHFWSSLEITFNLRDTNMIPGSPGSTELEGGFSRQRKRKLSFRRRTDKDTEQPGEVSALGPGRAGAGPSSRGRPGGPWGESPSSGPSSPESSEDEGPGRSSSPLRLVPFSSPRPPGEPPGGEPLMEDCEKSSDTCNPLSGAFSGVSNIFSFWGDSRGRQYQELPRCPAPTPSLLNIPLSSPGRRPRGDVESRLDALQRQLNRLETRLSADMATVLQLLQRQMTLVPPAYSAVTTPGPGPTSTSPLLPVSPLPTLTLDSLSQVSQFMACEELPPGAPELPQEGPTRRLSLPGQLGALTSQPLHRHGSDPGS
row,Compound,"hERG current change (%, negative = inhibition) at 10uM [%]"
1,CC1=NNC(=O)C(CC(=O)Nc2ccc(Cl)c(Cl)c2)C1 (stereo not shown),-40.6
2,OC1(c2cccc(F)c2)CCN(Cc2ccncc2)CC1,-1.96
3,O=C(CCCCCNC(=O)N1CCn2c1nc1ccccc12)N[C@H](Cc1ccccc1)C(=O)O,-1.43
4,COc1cc(OC)cc(C(=O)NCC(C)NC(=O)c2cc(OC)cc(OC)c2)c1 (stereo not shown),2.59
5,O=C(NCC(=O)N(c1cccnc1)C(C(=O)NC1CCCCC1)c1cccnc1)c1ccco1 (stereo not shown),6.68
6,O=c1[nH]c(SCCOc2ccccc2)nc2ccccc12,-2.43
7,Cn1nc(C(F)(F)F)c(-c2ccc(Br)cc2)c1NC(=O)Nc1ccc(F)cc1F,13
8,O=C(Nc1ccc(Cl)cc1)NC1CCCCC1Cc1ccco1 (stereo not shown),-18.5
9,Cc1ccc(S(=O)(=O)NN=C2CCC(C(C)(C)C)CC2)cc1[N+](=O)[O-] (stereo not shown),-8.37
10,O=C(N/N=C/c1ccccc1O)C1CC(=O)N(c2ccc(F)cc2)C1 (stereo not shown),3.12
11,CC(C(=O)O)N1C(=O)/C(=C/C=C/c2ccco2)SC1=S (stereo not shown),9.15
12,Cc1nn(C)cc1CNC(=O)C1C2CCC(O2)C1C(=O)O (stereo not shown),23.7
13,CCOC(=O)Cn1c(N2CCCCCC2)nc2c1c(=O)[nH]c(=O)n2C,9.4
14,O=C(NCc1ccccc1)C(C(=O)c1ccc(F)cc1)n1ccccc1=O (stereo not shown),-0.0984
15,CC(C1CC2CCC1C2)n1c(-c2cccs2)n[nH]c1=S (stereo not shown),2.42
16,COC(=O)c1cc2ccsc2n1CC(=O)NCC1CCCO1 (stereo not shown),10.6
17,Cn1c(=O)cc(OCCCC(=O)Nc2ccccn2)c2ccccc21,-5.51
18,COc1ccc(CCNC2=C(Cl)C(=O)N(CCc3ccc(OC)c(OC)c3)C2=O)cc1OC,6.38
19,Cc1cc(C)c(NC(=O)C2CCCO2)c(C)c1 (stereo not shown),9.23
20,CCOC(=O)C1=C(C)NC(SCc2cc(=O)[nH][nH]2)=C(C#N)C1c1cccs1 (stereo not shown),15.4
21,CCOc1cc(N2CCOCC2)c(OCC)cc1NC(=O)c1ccc(OC)cc1,3.31
22,Cc1ccnn1CC(=O)N/N=C/c1c[nH]c2ccccc12,6.73
23,COCc1nnc(NC(=O)c2ccc(S(=O)(=O)N(C)C3CCCCC3)cc2)o1,-2.98

row,Compound,"hERG current change (%, negative = inhibition) at 10uM [%]"
1,COc1cc(OC)cc(C(=O)NNC(=O)Cc2ccc(OC)c(S(=O)(=O)N3CCOCC3)c2)c1,-1.89
2,COC(=O)C1C2C=CC3(CN(Cc4cccs4)C(=O)C13)O2 (stereo not shown),4.14
3,COc1ccc(C(=O)NCCS(=O)(=O)N2CCc3ccccc3C2)cc1OC,-10.1
4,O=c1cc(-c2ccccc2)oc2cc(OCc3ccccc3)cc(O)c12,12.6
5,CCCc1cc(C(N)=O)c(NC(=O)C2CCCO2)s1 (stereo not shown),-15.8
6,CCOP(=O)(OCC)C(NC(=O)C(F)(F)F)c1ccccc1 (stereo not shown),3.57
7,Nc1ccc2nc3c(=O)[nH]c(=S)[nH]c3nc2c1,12.6
8,O=C(O)c1ccccc1-c1ccc(/C=C2\SC(=O)N(c3ccccc3)C2=O)o1,18
9,CCc1ccc(CN2CCC(n3nccc3NC(=O)c3ccccc3)CC2)o1,-36
10,CC(=O)Oc1ccccc1C1C[C@]2(C)CC(=O)NC2N1C(C)=O (stereo partly shown),16.7
11,C=CCn1c(NC(=O)c2ccc(C)cc2)c(C#N)sc1=N,9.26
12,COC(=O)Cc1ccc(NC(=O)c2ccc3c(c2)C(=O)N(CC2CCCO2)C3=O)cc1 (stereo not shown),-3.73
13,CCc1nnc(NC(=O)CSc2nnc(CSc3nc(C)cc(C)n3)o2)s1,3.21
14,CN1C(N)=NC(=O)/C1=C/c1ccc(F)cc1,6
15,Cc1ccc(C(=O)CCC(=O)N2CCC(C(N)=O)CC2)cc1,32
16,CCCCC(=O)NC(=S)Nc1c(C)cc(Br)cc1C,2.71
17,O=C(Cc1ccccc1)c1c[nH]c(C(=O)NCCCn2ccnc2)c1,2.28
18,Cc1ccc(S(=O)(=O)CC(=O)N2CCN(c3ccccc3F)CC2)cc1,-16.8
19,CC(C)c1cc(NCCOCCO)n2c(nc3ccccc32)c1C#N,-37.9
20,CCSc1nc(C)cc(Oc2ccc(=O)n(C)n2)n1,-0.535
21,CCN(CC)c1ccc(NC(=O)CN2CCN(CC(=O)Nc3ccccc3F)CC2)cc1,-64.9
22,O=C(CCCC(=O)c1ccccc1)Nc1ccc(O)cc1,12
23,COc1cc2c(C(=O)N3CCN(C)CC3)c(C)n(-c3ccccc3)c2cc1Br,-54.7
